Reference: the supplement of paper PMC11741623
The other results are listed elsewhere or left out. Interaction screen of human proteins with wild-type SARS-CoV-2 proteins by split-DHFR complementation in yeast, 1 µg/mL methotrexate. Value = fitness of the pair (three or more lineages) minus that of the viral protein without a human partner, on a scale set by negative (0) and fused positive (1) controls, mean of up to three cultures; higher = more likely to interact. Active = false discovery rate below 0.05 (one-sided t-test) in at least one culture. Nearly all pairs are not hits, and differences among them are mostly noise (correlation between cultures about 0.3); most hits were seen in one culture only. Human sequences are the Swiss-Prot entries looked up by gene name; the clone may be another isoform. NSP2 values were corrected by the authors for a growth advantage. Listed are human proteins with a hit and a random twelfth of the others.

B1: GNAT2, P19087 (protein)
chain: MGSGASAEDKELAKRSKELEKKLQEDADKEAKTVKLLLLGAGESGKSTIVKQMKIIHQDGYSPEECLEFKAIIYGNVLQSILAIIRAMTTLGIDYAEPSCADDGRQLNNLADSIEEGTMPPELVEVIRRLWKDGGVQACFERAAEYQLNDSASYYLNQLERITDPEYLPSEQDVLRSRVKTTGIIETKFSVKDLNFRMFDVGGQRSERKKWIHCFEGVTCIIFCAALSAYDMVLVEDDEVNRMHESLHLFNSICNHKFFAATSIVLFLNKKDLFEEKIKKVHLSICFPEYDGNNSYDDAGNYIKSQFLDLNMRKDVKEIYSHMTCATDTQNVKFVFDAVTDIIIKENLKDCGLF
B2: ODAM, A1E959 (protein)
chain: MKIIILLGFLGATLSAPLIPQRLMSASNSNELLLNLNNGQLLPLQLQGPLNSWIPPFSGILQQQQQAQIPGLSQFSLSALDQFAGLLPNQIPLTGEASFAQGAQAGQVDPLQLQTPPQTQPGPSHVMPYVFSFKMPQEQGQMFQYYPVYMVLPWEQPQQTVPRSPQQTRQQQYEEQIPFYAQFGYIPQLAEPAISGGQQQLAFDPQLGTAPEIAVMSTGEEIPYLQKEAINFRHDSAGVFMPSTSPKPSTTNVFTSAVDQTITPELPEEKDKTDSLREP
B3: MS4A7, Q9GZW8 (protein)
chain: MLLQSQTMGVSHSFTPKGITIPQREKPGHMYQNEDYLQNGLPTETTVLGTVQILCCLLISSLGAILVFAPYPSHFNPAISTTLMSGYPFLGALCFGITGSLSIISGKQSTKPFDLSSLTSNAVSSVTAGAGLFLLADSMVALRTASQHCGSEMDYLSSLPYSEYYYPIYEIKDCLLTSVSLTGVLVVMLIFTVLELLLAAYSSVFWWKQLYSNNPGSSFSSTQSQDHIQQVKKSSSRSWI
B4: LIN28A, Q9H9Z2 (protein)
chain: MGSVSNQQFAGGCAKAAEEAPEEAPEDAARAADEPQLLHGAGICKWFNVRMGFGFLSMTARAGVALDPPVDVFVHQSKLHMEGFRSLKEGEAVEFTFKKSAKGLESIRVTGPGGVFCIGSERRPKGKSMQKRRSKGDRCYNCGGLDHHAKECKLPPQPKKCHFCQSISHMVASCPLKAQQGPSAQGKPTYFREEEEEIHSPTLLPEAQN

Biological target: SARS-CoV-2 M
Test: yeast fitness gain over the viral ORF with no human partner (scaled fitness); higher = more likely to interact
Procedure: (§1)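 Split mouse DHFR complementation in pooled diploid yeast: human ORFeome clones carry one fragment and viral ORFs the other; barcoded lineages compete in 1 µg/mL methotrexate and fitness is read by barcode sequencing in up to three cultures.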

Row | Binder | yeast fitness gain
1 | B1 | inactive: -0.142
2 | B2 | inactive: 0.0327
3 | B3 | inactive: -0.00117
4 | B4 | inactive: 0.0532

Biological target: SARS-CoV-2 N
Test: as above
Procedure: as §1

Row | Binder | yeast fitness gain
5 | B1 | inactive: -0.123

Biological target: SARS-CoV-2 NSP10
Test: as above
Procedure: as §1

Row | Binder | yeast fitness gain
6 | B1 | inactive: -0.0889
7 | B2 | inactive: -0.0133
8 | B3 | inactive: 0.0187
9 | B4 | inactive: -0.0996

Biological target: SARS-CoV-2 NSP12
Test: as above
Procedure: as §1

Row | Binder | yeast fitness gain
10 | B1 | inactive: 0.0347
11 | B2 | inactive: -0.0441
12 | B3 | inactive: 0.0666
13 | B4 | inactive: 0.0673

Biological target: SARS-CoV-2 NSP13
Test: as above
Procedure: as §1

Row | Binder | yeast fitness gain
14 | B1 | inactive: 0.0216
15 | B2 | inactive: 0.0125
16 | B3 | inactive: -0.163
17 | B4 | inactive: -0.0527

Biological target: SARS-CoV-2 NSP15
Test: as above
Procedure: as §1

Row | Binder | yeast fitness gain
18 | B1 | inactive: -0.208
19 | B2 | inactive: -0.0489
20 | B4 | inactive: 0.0154

Biological target: SARS-CoV-2 NSP16
Test: as above
Procedure: as §1

Row | Binder | yeast fitness gain
21 | B1 | inactive: -0.0298

Biological target: SARS-CoV-2 NSP2
Test: as above
Procedure: as §1

Row | Binder | yeast fitness gain
22 | B1 | inactive: -0.107
23 | B2 | inactive: -0.105
24 | B3 | inactive: -0.0739
25 | B4 | inactive: -0.0318

Biological target: SARS-CoV-2 NSP5
Test: as above
Procedure: as §1

Row | Binder | yeast fitness gain
26 | B1 | inactive: -0.0234
27 | B2 | inactive: 0.0268
28 | B4 | inactive: 0.0439

Biological target: SARS-CoV-2 NSP7
Test: as above
Procedure: as §1

Row | Binder | yeast fitness gain
29 | B1 | inactive: 0.0274
30 | B2 | inactive: -0.124
31 | B4 | inactive: 0.0319

Biological target: SARS-CoV-2 NSP8
Test: as above
Procedure: as §1

Row | Binder | yeast fitness gain
32 | B1 | inactive: -0.0737
33 | B2 | inactive: -0.078
34 | B3 | inactive: 0.001
35 | B4 | inactive: -0.0284

Biological target: SARS-CoV-2 NSP9
Test: as above
Procedure: as §1

Row | Binder | yeast fitness gain
36 | B1 | inactive: -0.0313

Biological target: SARS-CoV-2 ORF10
Test: as above
Procedure: as §1

Row | Binder | yeast fitness gain
37 | B1 | inactive: -0.00625
38 | B3 | inactive: -0.207
39 | B4 | inactive: -0.0382

Biological target: SARS-CoV-2 ORF3B
Test: as above
Procedure: as §1

Row | Binder | yeast fitness gain
40 | B1 | inactive: -0.0105
41 | B2 | inactive: -0.0291
42 | B3 | inactive: 0.0295
43 | B4 | inactive: 0.0261

Biological target: SARS-CoV-2 ORF6
Test: as above
Procedure: as §1

Row | Binder | yeast fitness gain
44 | B1 | inactive: 0.0416
45 | B2 | inactive: -0.0335
46 | B3 | inactive: -0.185
47 | B4 | inactive: -0.0112

Biological target: SARS-CoV-2 ORF7A
Test: as above
Procedure: as §1

Row | Binder | yeast fitness gain
48 | B1 | inactive: 0.0115
49 | B2 | inactive: 0.0928
50 | B4 | inactive: -0.0497

Biological target: SARS-CoV-2 ORF7B
Test: as above
Procedure: as §1

Row | Binder | yeast fitness gain
51 | B1 | inactive: 0.0309
52 | B2 | inactive: 0.111
53 | B4 | inactive: 0.000876

Biological target: SARS-CoV-2 ORF8
Test: as above
Procedure: as §1

Row | Binder | yeast fitness gain
54 | B1 | inactive: 0.0126
55 | B2 | inactive: -0.042
56 | B3 | inactive: -0.016
57 | B4 | inactive: 0.0389

Biological target: SARS-CoV-2 ORF9B
Test: as above
Procedure: as §1

Row | Binder | yeast fitness gain
58 | B1 | inactive: 0.00967
59 | B2 | inactive: -0.000298
60 | B3 | inactive: 0.0374
61 | B4 | inactive: -0.0224

Biological target: SARS-CoV-2 ORF9Bwu (the 73-codon ORF)
Test: as above
Procedure: as §1

Row | Binder | yeast fitness gain
62 | B1 | inactive: -0.0755
63 | B4 | inactive: 0.105

Biological target: SARS-CoV-2 S
Test: as above
Procedure: as §1

Row | Binder | yeast fitness gain
64 | B1 | inactive: -0.169
65 | B2 | inactive: 0.042
66 | B3 | inactive: -0.0359
67 | B4 | inactive: 0.0387

Biological target: SARS-CoV-2 NSP1
Test: as above
Procedure: as §1

Row | Binder | yeast fitness gain
68 | B2 | inactive: 0.00552
69 | B3 | inactive: -0.0562
70 | B4 | inactive: -0.0506

Biological target: SARS-CoV-2 NSP14
Test: as above
Procedure: as §1

Row | Binder | yeast fitness gain
71 | B2 | inactive: -0.36
72 | B4 | inactive: -0.351

Biological target: SARS-CoV-2 NSP6
Test: as above
Procedure: as §1

Row | Binder | yeast fitness gain
73 | B2 | inactive: 0.104

Biological target: SARS-CoV-2 ORF3A
Test: as above
Procedure: as §1

Row | Binder | yeast fitness gain
74 | B2 | inactive: -0.255
